This note sets out measurements from the RNAGym collection of RNA variant scans (doi:10.1093/nar/gkz1192).

The source gives no read counts; variants with many changes may rest on few reads.

Sequences and labels used below:
B1: CPEB3 Ribozyme (parent)
chain: UAACAGGGGGCCACAGCAGAAGCGUUCACGUCGCAGCCCCUGUCAGAUUCUGGUGAAUCUGCGAAUUCUGCUGUAUAUCUC

In this series the parent is B1. In words: self-cleavage, relative activity (ratio to wild type); higher = more cleavage; in vitro, sequencing. The method, boiled down: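 After error-prone PCR and barcoding, CPEB3 ribozyme mutant libraries were transcribed with T7 RNA polymerase at 37°C for 5 hours, then given 15 min with DNase I before an EDTA stop, and they cleaved during both steps. Reverse transcription with template switching preceded Illumina sequencing. Relative activity divides a variant's cleaved/total read fraction by the unmutated ribozyme's. At least 5 reads were required per variant, and three batches were averaged.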
Take U25C A35U U60A: the self-cleavage stood at 0.14.
For U26A A35G U58A U66C the value was 0.58; for U26A U41A A64G, 0.44; for U25C U31G A35U A56G, 0.15.
On to U25C A45U U54A U69A, for which the self-cleavage turned out to be 0.11.
For U25C U31C U54A the value was 0.16; for U25C U41A A47G A56U A64G U78C, 0.04; for U25C A35U U51C C59A U69C A77G, 0.04.
U26A U49A U67C U78C: the self-cleavage came to 0.12.
The figure for U25C U26C C32U U43A U58A is 0.37.
The figure for U25C U26A U72C is 0.24.
The figure for U26C A28C U31C A35U A57G U74A is 0.07; for U25C U60C U72A U76C it is 0.08; for U25C U41A U51A C68U U72C it is 0.1.
For the variant U26A U51A A64G, the self-cleavage amounted to 0.73.
For U25C U41C U43A A77G the value was 0.22; for U25C U48C A56G, 0.04; for U25C C40U G63U U69C U78A, 0.07.
For U25C U43C A45C U66C U80C the value was 0.13.
The figure for U25C U26C U49C U51A C59U is 0.21; for U25C C29U A35U U51C A57G it is 0.1.
With U26A A28G C32U A47G U49C A65G A77U, the self-cleavage was determined as 0.02.
As for U26C A28C U60C A65G, the self-cleavage came to 0.17.
The figure for U26A C34U A35C U43C U58A U74C is 0.07; for U26A U31C U60A it is 0.51; for U25C U26C U31A A64U it is 0.2.
For U25C U54A A56U A64G U66C the value was 0.09; for U25C U54A A56U U78A, 0.15.
For U25C C32U C38A the value was 0.39; for U26A U60A U78C, 0.31.
Consider U25C A35G U48C U66C, for which the self-cleavage came out at 0.15.
The figure for U25G U43C A56G U80C is 0.14.
For U26A G33A U74A the value was 0.21.
For U26C A28G U31C U41A A57G the value was 0.11; for U25C C37U A45U A47G, 0.12.
With U25C U26C U69C, the self-cleavage turned out to be 0.18.
On to U25C U43A A64G, for which the self-cleavage was 0.37.
With U26C A28G U43C U51C A75C C81G, the self-cleavage amounted to 0.75.
In the case of U25C G63C U78C, the self-cleavage was 0.19.
With U25C G33U U76C, the self-cleavage is 0.08.
U26A C62U U72G: the self-cleavage was 0.18.
The figure for U26A C44U U54C A77G U78A is 0.07; for U26C A35G U43A it is 0.26.
For the variant U25C U26A A35U C40U, the self-cleavage was found to be 0.58.
The figure for U25C A45G G70C U76A is 0.2; for U25C U31C A35G U41A U43C it is 0.09; for U25C C32A A64G U66C U67C C79U it is 0.06.
As to U25C C40U A47G U69C, the self-cleavage was determined as 0.13.
The figure for U26A A35C U51C U69C is 0.21; for U25C G33A U66G it is 0.18.
Consider U25C U41C U51A U72C, for which the self-cleavage stood at 0.06.
The figure for U25C A35U A47G A57C U76A is 0.16; for U25G U41C A57G it is 0.35; for U25C A56G G70A it is 0.42.
The figure for U25C G55U U78G is 0.08; for U25C U60C U78C it is 0.15; for U25C U60A A75U it is 0.48.
For U25C G36U A45G U48C the value was 0.15; for U25C A35U A77U, 0.42; for U26A A35G G63A U80A, 1.27.
For the variant U25C C38U U74A, the self-cleavage is 0.61.
For U25C U43C A45G A65G the value was 0.16; for U26C A35G U48C A65U, 0.14.
The figure for U26C A28G C32A A57G A65G is 0.07.
For U25C C38U A77U the value was 0.13; for U25G A28G U51C U74C, 0.11; for U25C A45G A77G, 0.43.
For the variant U25C U41A U80G, the self-cleavage was determined as 0.21.
For U25C C27G C37G A45U A64U A77G the value was 0.06.
For U26A C44U G53A A57G the value was 0.5.
Consider U25C U51C A57C U60A, for which the self-cleavage was determined as 0.09.
The figure for U25C C38G U54C A56U U69C is 0.08; for U25C U41C U60A it is 0.32.
The figure for U25C A47G U69A is 0.17.
Consider U25C A47G A65G, for which the self-cleavage came to 0.24.
In the case of U25C A56G A57G, the self-cleavage was determined as 0.25.
The figure for U25C U51C U80C is 0.22; for U25C C27U U43C it is 0.16; for U26A A28G U78C it is 0.18.
The figure for U25C A45G U74C is 0.21; for U26A U31A U54A it is 0.57; for U25C U43C U51A it is 0.25.
The figure for U25C A35U A45G U54A C79A is 0.24.
Regarding U25G C40U A65G U78C U80A, the self-cleavage was 0.05.
For U25C U26C C32U U41C U51C U54C C62U the value was 0.05; for U26A U60C A65G, 0.3; for U26A U74A A77G, 1.25.
For U26A C32G G63U the value was 0.17; for U26A U41C U66C, 0.25; for U25C A35U U43C U48A A56G A65G A77U, 0.04.
For the variant U26A G73A U80C, the self-cleavage was 1.41.
For U26C A28G A64U the value was 0.29; for U25C U54A U80G, 0.17.
The figure for U26C A35C C38U U69C U76A is 0.17; for U25C U41A U72C U78C it is 0.29.
Consider U25C U51A A56G U58C, for which the self-cleavage stood at 0.07.
The figure for U26A U43A A45G U51G U58C is 0.11; for U26A A57G U60A A65U it is 0.17.
For U25C U48C U67G the value was 0.11.
Consider U25C U31A U41C, for which the self-cleavage turned out to be 0.28.
For U25G A28G U43C U58A U78C the value was 0.17; for U26A G42A A65U, 0.16; for U26A A35G U66C, 1.1.
For U25C A56G A77G the value was 0.19.
Regarding U25C U43A A65U U69C U78C U80A, the self-cleavage stood at 0.17.
For U25C U49C A57G U74A A75G the value was 0.13; for U25C U31C U54C U76C, 0.29; for U26A G52U G55A A56C A57G, 0.26.
For U25C U48C A64G U74C A77G the value was 0.06; for U26A U54A A56U, 0.61; for U26A U67A A77G, 0.31.
In the case of U25C U41C U51C U76C, the self-cleavage came out at 0.2.
The figure for U26C A35G A47G is 0.94.
For U25C A35G A45G A56U U67C the value was 0.17.
U26A U72A A77U: the self-cleavage was 0.36.
For U25C U43C A45U U60C the value was 0.13; for U26A C39A A57C, 0.07.
Take U25C U72A A77G: the self-cleavage turned out to be 0.07.
With U26A U43C U72C, the self-cleavage amounted to 0.26.
For U25C U26G A57G U72C U78C the value was 0.06; for U25C A45G U49C U69C, 0.09.
For U26A U43A A64C, the self-cleavage was 0.13.
The figure for U26A C29U C34A is 0.1; for U25C G30A C38U U72C A77U it is 0.35.
Regarding U25C U31C U54C C62U U66C, the self-cleavage worked out at 0.14.
For U25C C27U U58C U66C, the self-cleavage came out at 0.27.
In the case of U26A A64C G73C, the self-cleavage was 0.25.
The figure for U25C U43C U74C U80C is 0.17; for U26C A28G C34G U48C A64G U67G A77U it is 0.09.
The figure for U25C A57G U72C C79A is 0.07.
The figure for U26A U31C G33C U43C U69A A77C is 0.04; for U25C U41A A64U U74C it is 0.14; for U25C A56U U80C C81U it is 0.06.
As to U26A C29U G33A U51C, the self-cleavage stood at 0.07.
Take U25G U69A U72A: the self-cleavage came out at 0.08.
As to U25C U41A U69A U78C, the self-cleavage turned out to be 0.18.
For the variant U25G A28G A56U U69A, the self-cleavage was found to be 0.03.
For U26A U51C A56C A57U the value was 0.1; for U25C U51C U60C C68A, 0.07.
Regarding U26A U49A A57C, the self-cleavage worked out at 0.17.
The figure for U26A A35G U48C U66C U72C is 0.59.
Consider U25C U43C U67C A77U, for which the self-cleavage amounted to 0.08.
For U25C G53U U80C, the self-cleavage was determined as 0.36.
For U25C U31C A45C the value was 0.08; for U25C C50G C71U, 0.07; for U25C U51A G52A U72C, 0.18.
As to U26A A35G U41C A45U U49C A75U, the self-cleavage was found to be 0.08.
For U26C A28C C38U A56G U60C A64G U72A the value was 0.13; for U26A A28G U43C U54C G55A U60A C62G, 0.05; for U25C G61A U72G, 0.09.
Regarding U25C A45U A47G U72C U80C, the self-cleavage was determined as 0.08.
For the variant U26A A35G U41C U72A, the self-cleavage was 1.1.
For U25C A56G U58A C68A U76C, the self-cleavage came to 0.11.
The figure for U25G G30A U31C C38A U80C is 0.35; for U26A G30U A57G it is 0.07; for U25C C40U C62U U67C C68U U80C it is 0.06.
For U26A C37U A56U U76A, the self-cleavage stood at 0.25.
On to U25C A45G A47G A65U, for which the self-cleavage was found to be 0.09.
For U25C A47G U80A the value was 0.1; for U25C U49C A56G G63U U78A C79A, 0.14; for U26A C37A A57C U76C, 0.07.
Take U25C U26A U31C A57G G63A U76C: the self-cleavage was determined as 0.17.
The figure for U25C U51A C62U U67C U74C is 0.06.
As for U26A U31C U43C A45G U66C, the self-cleavage is 0.32.
For U26A U72A A75G the value was 1.05; for U25C U49C U66C, 0.15.
As to U25C U41C A65G, the self-cleavage is 0.21.
